Experimental data published in the RNAGym collection of RNA variant scans (doi:10.7554/elife.90254).
Read counts are not given, so values of variants with three or more changes are uncertain.

B1: OR4K15 (parent)
chain: GUUAACGGUCAUAGGCCAUGGAAACUAGGAGCACCAUUUCGCUGCCAGUGAAGAAAUGAACAAAGAAAAUCUGGGCCAGGCAGGCAUCAAAAGAAAUAGUCUUGCGCUCAACCAGAAAGUCUGUAAUCAUUUUAAGGGUA

Variants of: B1
Experiment: self-cleavage, relative activity (ratio to wild type); higher = more cleavage; in vitro, sequencing; the parent is a self-cleaving ribozyme

For GUUAACGGUCAUAGGCCAUGGAAACUAGGAGCACCAUUUCGCUGCCAGUGAAGAAAUGAACAAAGAAAAUCUGGGCCAGGCAGGCACCAAAAGAAGUAGUCUUGCGCUCAACCAGAAAGUCUGUAAUCGUUUUAAGGGUA, which self-cleavage is on record?
Its self-cleavage is 1.29.

For GUUAACGGACAUAGGCCAUGGAAACUAGGAGCACCAUUUCGCUGCCAGUGAAGAAAUGAACAAAGAAAAUCUGGGCCAGGCAGGCAUCAAAAGAAAUAGUCUUGCGCUCAACCAGAAAGUCUGCAAUCAUUUUAAGGGUG, which self-cleavage is on record?
Its self-cleavage is 0.72.

Which self-cleavage does the source give for GUUAACGGUCGUAGGCCAUGGAAACUAGUAGCACCAUUUCGCUGCCAGUGAAGAAAUGAACAAAGAAAAUCUGGGCCAGGCAGGCAUGAAAAGGAAUAGUCUUACGCUCAACCAGAAAGUCUGUAAUCAUUUUAAGGGUA here?
The self-cleavage was 0.02.

Which self-cleavage does the source give for GUUAACGGUCAUAGGCCAUGGAAACUAGGAGCACCAUUUCGCUGCCAGUGAAGAAAUGAACAAAGAAAUUCUGGGCCAGGCCGGCAUCAAAAGGAAUAGUCUUGCGCUCAGCCAGAAAGUCUGUAAUCAUUUUAAGGGUA here?
Its self-cleavage is 0.02.

For GUUAACGGUCAUAGGCCAUGGAAUCUAGGAGCACCAUUUCGCUGCCAGUGAAAAAAUGAACAAAGAAAAUCUGGGCCAGGCAGGCAUCAAAAGAAAUAGUCUUGCGCUCGACCAGAAAGUCUGUAAUCAUUUUAAGGGUA, which self-cleavage is on record?
The self-cleavage was 0.21.

With GUUAACGGUCAUAGGCCAUGGAAACUAGGAGCACCACUUCGCUGCCAGUGAAGAAAUGAACAAAGAAAAUCUGGACCAGGCAGGCAUCAAAAGAAAUAGUCUUGCGCUCAACCUGAAAGUCUGUAAUCAUUUUAAGGGUA as the variant, how does the self-cleavage read?
The self-cleavage was 0.04.

For GUUAACGGUCAUAGGCCAUGGAAACUAGGAGCACCAUUUCGCUGCCUGUGAAGAAAUGAACAAAGAAAAUCUGGGCCAGGCAGGCACCAAAAGAAAUAGUCUUGCGCUCAACCAGAAAGCCUGUAAUCAUUUUAAGGGUA, which self-cleavage is on record?
Its self-cleavage is 0.26.

For GAUAACGGUCAUAGGCCAUGGAAACUAGGAGCACCAUUUCGCAGCCAGUGAAGAAAUGAACAAAGAAAAUCUGGGCCAGGCAGGCAUCAAAAGAAAUAGUCUUGCGCUCAACCAGAAAGCCUGUAAUCAUUUUAAGGGUA, which self-cleavage is on record?
The self-cleavage was 0.94.

Which self-cleavage does the source give for UUUAACGGUCAUAGGCCAUGGAAACUAGGAGCACCAUUUCGCUGCCAGUGAAGAAACGAGCAAAGAAAAUCUGGGCCAGGCGGGCAUCAAAAGAAAUAGUCUUGCGCUCAACCAGAAAGUCUGUAAUCAUUUUAAGGGUA here?
Its self-cleavage is 0.44.

With GUUAACGGUCAUAGGCCAUGGAAGCUAGGAGCACCAUUUCGCUGCCAGUGAAGGAAUGAACUAAGAAAAUCUGGGCCAGGCAGGCAUCAAAAGAAAUAGUCUUGCGCUCAACCAGAAAGUCUGUAAUCGUUUUAAGGGUA as the variant, how does the self-cleavage read?
The self-cleavage was 0.75.

Which self-cleavage does the source give for GUCAACGGUCAUAGGCCAUGGAAACUAGGAGCGCCAUUUCGCUGCCAGUGAAGAAAUGAACAAAGAAAAUCUGGGCCAGGCAGGCAUCAAAAGAAAUAGUCUUGCGCUCAACCAGAAGGUCUGUAAUCAUUUUAAGGGUA here?
The self-cleavage was 0.64.

For GUUAACGGUCAUAGGCCAUGGAAACUAGGAGCACCAUUUCGCUGCCAGUGAAGAAAUGAACAAAGAAAAUCUGGGCCAGGCAGGCAUCAAAAGAAGUAGUCUUGCGCUCAACCAGAAGGUCUGUAGUCAUUUUAAGGGUA, which self-cleavage is on record?
Its self-cleavage is 1.02.

For GUUAACGGUCAUAGGCCGUGGAAACUAGGAGCACCAUUUCGCUGCCAGUGAAGAAACGAACAAAGAAAAUCUGGGCCAGGCAGGCAUCAGAAGAAAUAGUCUUGCGCUCAACCAGAAAGUCUGUAAUCAUUUUAAGGGUA, which self-cleavage is on record?
Its self-cleavage is 0.48.

With GUUAACGGUCAUAGGCCAUGGAUACUAGGAGCACCAUUUCGCUGCCAGUGAAGAAAUGAACAUAGAAAAUCUGGGCCAGGCAGGCAUCAAAAGAAAUAGUCUUGCGCUCAACCAGAGAGUCUGUAAUCAUUUUAAGGGUA as the variant, how does the self-cleavage read?
Its self-cleavage is 1.15.

With GUUAACGGUCAUAGGCCAUGGAAACUAGGAGCACCAUUUCGCAGCCAGUGAAGAAAUGAACAAAGAAAAUCUGGGCCAGGCAGGCAUCAAAAGAAAUAGUCAUGCGCUCAACCAGAAAGCCUGUAAUCAUUUUAAGGGUU as the variant, how does the self-cleavage read?
Its self-cleavage is 0.34.

With GUUAACGGUCAUAGGCCGUGGAAGCUAGGAGCACCAUUUCGCUGCCAGUGAAGAAAUGAACAAAGAAAAUCUGGGCCAGGCAGGCAUCAAAAGAAAUAGUCUUGCGCUCAACCAGAGAGUCUGUAAUCAUUUUAAGGGUA as the variant, how does the self-cleavage read?
Its self-cleavage is 1.1.

For GUAAACGGUCAUAGGCCAUGGAAACUAGGAGCACCAUUCCGCUGCCAGUGAAGAAAUGAACAAAGAAAAUCUGGGCCAGGCAGGCAUCAAAAGAAGUAGUCUCGCGCUCAACCAGAAAGUCUGUAAUCAUUUUAAGGGUA, which self-cleavage is on record?
Its self-cleavage is 1.56.

For GUUAACGGUCAUAGGCCAUGGAGACUAGGAGCACCAUUUCGCUGCCAGUGAAGAAAUGAACAAAGAAAAUCUGGGCCAGGCAGGCAUCAAAAGAAAUAGUCUUGCGCUCGACCAGAAAGUCUGUAGUCAUUUUAAGGGUA, which self-cleavage is on record?
The self-cleavage was 0.15.

For GUUAACGGUCAUAGGCCAUGGAAACUAGGAGCACCAUUUCGCUGCCAGUGAAGAAAUGAACAGAGAAAAUCUGGGCCAGGCAGGCAUUAAAAGAAAUAGUCUUGCGCUCAACCAGAGAGUCUGUAAUCAUUUUAAGGGUA, which self-cleavage is on record?
Its self-cleavage is 2.41.

With GUUAACGGUCAUAGGCCAUGGAGACUAGGAGCACCAUCUCGCUGUCAGUGAAGAAAUGAACAAAGAAAAUCUGGGCCAGGCAGGCACCAAAAGAAAUAGUCUUGCGCUCAACCAGAAAGUCUGUAAUCAUUUUAAGGGUA as the variant, how does the self-cleavage read?
Its self-cleavage is 0.7.
